PMC5040251, “The Structure of Treponema pallidum Tp0751 (Pallilysin) Reveals a Non-canonical Lipocalin Fold That Mediates Adhesion to Extracellular Matrix Components and Interactions with Host Cells” (PLoS Pathogens, 2016)
Read-outs that look alike come from different tables or passages of the source. These are yes or no findings as the source states them, for the method shown. Some binding calls cover weakened binding; strength is not graded here.

Amino acid sequences for entries named in this document (tags omitted). A change or cut given only in a name is not applied to a line headed by its entry.
UniProt P02452: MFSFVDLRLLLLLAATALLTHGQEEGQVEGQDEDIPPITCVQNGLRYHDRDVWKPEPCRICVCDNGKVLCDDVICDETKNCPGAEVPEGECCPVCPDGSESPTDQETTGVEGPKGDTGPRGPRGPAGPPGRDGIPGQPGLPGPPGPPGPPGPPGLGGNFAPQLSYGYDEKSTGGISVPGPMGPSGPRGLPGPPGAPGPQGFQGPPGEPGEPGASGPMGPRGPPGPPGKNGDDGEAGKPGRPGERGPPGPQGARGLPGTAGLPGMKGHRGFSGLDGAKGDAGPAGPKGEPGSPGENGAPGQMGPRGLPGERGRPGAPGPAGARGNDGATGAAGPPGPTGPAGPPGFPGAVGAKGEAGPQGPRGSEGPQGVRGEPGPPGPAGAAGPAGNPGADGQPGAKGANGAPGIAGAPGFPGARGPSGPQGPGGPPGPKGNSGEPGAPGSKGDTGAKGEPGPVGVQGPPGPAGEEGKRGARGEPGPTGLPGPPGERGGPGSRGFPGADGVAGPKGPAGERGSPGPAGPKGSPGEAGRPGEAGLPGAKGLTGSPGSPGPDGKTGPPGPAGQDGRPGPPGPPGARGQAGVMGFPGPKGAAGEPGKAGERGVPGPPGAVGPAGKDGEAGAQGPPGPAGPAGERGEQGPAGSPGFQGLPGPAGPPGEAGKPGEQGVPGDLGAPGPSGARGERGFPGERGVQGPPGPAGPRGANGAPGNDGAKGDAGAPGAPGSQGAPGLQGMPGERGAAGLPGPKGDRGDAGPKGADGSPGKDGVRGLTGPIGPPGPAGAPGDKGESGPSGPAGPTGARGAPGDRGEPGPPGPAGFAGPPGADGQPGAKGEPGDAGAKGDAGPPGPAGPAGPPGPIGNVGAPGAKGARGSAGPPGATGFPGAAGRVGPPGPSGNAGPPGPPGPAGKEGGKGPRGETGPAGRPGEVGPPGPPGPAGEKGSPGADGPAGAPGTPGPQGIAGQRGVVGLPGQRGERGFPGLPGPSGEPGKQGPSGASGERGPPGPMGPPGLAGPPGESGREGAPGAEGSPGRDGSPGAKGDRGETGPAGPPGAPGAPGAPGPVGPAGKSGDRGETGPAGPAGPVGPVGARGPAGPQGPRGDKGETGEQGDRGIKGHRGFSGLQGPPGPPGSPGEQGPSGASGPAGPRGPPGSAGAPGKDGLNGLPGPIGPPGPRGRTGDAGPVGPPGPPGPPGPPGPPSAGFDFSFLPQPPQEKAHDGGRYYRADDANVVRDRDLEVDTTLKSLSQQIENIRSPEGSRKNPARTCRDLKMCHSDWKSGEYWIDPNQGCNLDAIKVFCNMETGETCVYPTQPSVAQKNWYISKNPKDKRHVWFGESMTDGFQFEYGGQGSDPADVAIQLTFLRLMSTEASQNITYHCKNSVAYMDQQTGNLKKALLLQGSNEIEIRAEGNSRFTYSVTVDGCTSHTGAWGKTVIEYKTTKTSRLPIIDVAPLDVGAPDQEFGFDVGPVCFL

What was measured:
[1] = biological target: human collagen type I (human) (UniProt P02452); test: ELISA; initial binding screen, single point: host protein immobilised in plate wells, His6-tagged synthetic peptide in solution; absorbance at 600 nm, three wells, two independent experiments; done as in refs 21, 22; both purified
[2] = biological target: human collagen type I (human) (UniProt P02452); test: as above; remark: listed apart in the source

Question: How did the binding [1] turn out when “Tp0751 synthetic peptide p8 (from UniProt O83732 144-167)” was run?
Answer: no binding

B1: Tp0751 synthetic peptide p10 (peptide)
peptide: RKTVSFLTRNTAISSIRRRLEVTF
notes: Tp0751 (pallilysin), Treponema pallidum subsp. pallidum; Its composition equals that of the printed scrambled peptide p10scr2; also called peptide 10; source: synthetic peptide; not shown: His6, N-terminal, kept
Question: With B1 as the molecule, how does the binding [2] read?
Answer: no binding

B2: Tp0751 synthetic peptide p11 (peptide)
peptide: SIRRRLEVTFESHEVIHVRAVEDV
notes: Tp0751 (pallilysin), Treponema pallidum subsp. pallidum; shares its first 10 residues (with the arginine triplet) with p10; source: synthetic peptide; not shown: His6, N-terminal, kept
Question: With B2 as the molecule, how does the binding [2] read?
Answer: binds

B3: Tp0751 synthetic peptide p6 (peptide)
peptide: QGALQHLLAGLWIQTEISPNSGDI
notes: Tp0751 (pallilysin), Treponema pallidum subsp. pallidum; its central four residues LWIQ (126-129) are printed; also called peptide 6; source: synthetic peptide; not shown: His6, N-terminal, kept
Question: How did the binding [2] turn out when B3 was run?
Answer: binds

B4: Tp0751 synthetic peptide p4 (peptide)
peptide: GGAAQTHTQPPVQTAMRIALWNRA
notes: Tp0751 (pallilysin), Treponema pallidum subsp. pallidum; its central four residues PVQT (98-101) are printed; also called peptide 4; source: synthetic peptide; not shown: His6, N-terminal, kept
Question: Which binding [2] does the source give for B4 here?
Answer: binds
